# Among all 310,000 compounds or so, about 2,200 (0.71%) showed an effect of 50% or more. Effects have a minus sign here. This is one part of the list.
# Target: human ether-à-go-go-related gene (hERG) potassium channel (human, UniProt Q12809)
# Assay: primary screen, population patch clamp on CHO cells stably expressing hERG
# Sequence of human ether-à-go-go-related gene (hERG) potassium channel (Q12809 whole entry, looked up): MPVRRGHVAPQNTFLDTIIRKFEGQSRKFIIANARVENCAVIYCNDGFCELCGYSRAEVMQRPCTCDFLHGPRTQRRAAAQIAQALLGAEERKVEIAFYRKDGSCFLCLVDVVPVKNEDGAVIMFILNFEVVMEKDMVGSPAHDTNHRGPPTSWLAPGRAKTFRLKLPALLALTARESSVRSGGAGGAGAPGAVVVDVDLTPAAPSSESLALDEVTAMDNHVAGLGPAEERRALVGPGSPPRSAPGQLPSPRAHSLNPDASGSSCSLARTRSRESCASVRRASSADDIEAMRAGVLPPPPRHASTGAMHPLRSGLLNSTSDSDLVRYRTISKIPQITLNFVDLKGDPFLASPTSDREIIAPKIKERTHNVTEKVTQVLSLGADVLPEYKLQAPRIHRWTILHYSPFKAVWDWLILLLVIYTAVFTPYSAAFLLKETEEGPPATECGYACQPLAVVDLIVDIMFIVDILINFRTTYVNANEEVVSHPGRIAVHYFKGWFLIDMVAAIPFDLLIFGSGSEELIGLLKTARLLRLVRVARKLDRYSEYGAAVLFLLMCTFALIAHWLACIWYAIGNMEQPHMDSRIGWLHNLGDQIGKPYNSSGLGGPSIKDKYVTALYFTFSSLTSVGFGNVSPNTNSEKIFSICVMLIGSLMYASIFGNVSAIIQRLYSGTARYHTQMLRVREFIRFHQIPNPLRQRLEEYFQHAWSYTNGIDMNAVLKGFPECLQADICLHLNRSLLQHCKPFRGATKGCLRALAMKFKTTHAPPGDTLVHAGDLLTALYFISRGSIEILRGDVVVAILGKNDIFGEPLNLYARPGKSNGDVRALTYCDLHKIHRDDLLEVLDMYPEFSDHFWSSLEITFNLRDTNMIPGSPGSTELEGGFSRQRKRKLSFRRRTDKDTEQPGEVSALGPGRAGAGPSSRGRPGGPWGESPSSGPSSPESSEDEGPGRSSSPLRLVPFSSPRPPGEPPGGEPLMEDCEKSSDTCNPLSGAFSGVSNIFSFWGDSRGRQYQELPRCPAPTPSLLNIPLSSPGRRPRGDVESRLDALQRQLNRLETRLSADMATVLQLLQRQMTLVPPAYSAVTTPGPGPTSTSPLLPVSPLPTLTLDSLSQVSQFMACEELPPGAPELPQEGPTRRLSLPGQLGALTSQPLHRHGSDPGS
row,Structure (SMILES),"hERG current change (%, negative = inhibition) at 1uM"
1,CCC(Sc1ncccc1C(=O)OCCN1CCCC1=O)C(=O)NCc1ccco1 (centres unmarked),-4.71%
2,C=CCNCCCOc1ccc(Cl)cc1Br.O=C(O)C(=O)O,-4.8%
3,CC(=O)Nc1ccc(-n2c(C)c(C(C)=O)c(C(C)=O)c2C)cc1,8.67%
4,COC(=O)c1cc(C(C)=O)c(C)[nH]c1=O,9.83%
5,CCOc1cc(C(=O)NC(C)C2CC3CCC2C3)cc(OCC)c1OCC (centres unmarked),4.43%
6,Cn1cnc2c1c(=O)n(Cc1ccc(F)cc1Cl)c(=O)n2C,5.61%
7,Cc1ccc(OC(=O)C2c3ccccc3Oc3ccccc32)cc1C,9.57%
8,Cc1cccc(NC(=S)NNC(=O)c2ccccc2OC(F)F)c1,11.6%
9,Cc1cc2ccccc2n1CCNC(=O)C1CCCC1,11%
10,CCCC(=O)N/C(N)=N/c1nc(C)c2ccccc2n1,13.1%
11,COc1ccc(Cn2c(C3CCCCC3)nc3c(c(=O)c4ccccc4n3C)c2=O)cc1,9.44%
12,CC(C)C1Cc2c(sc(NC(=S)NC(=O)c3ccccc3)c2C#N)CO1 (centres unmarked),3.41%
13,Cc1ccc(-n2c(SCC(=O)NCC3CCCO3)nnc2-c2ccoc2C)cc1 (centres unmarked),-7.32%
14,COc1cc(N2C(=O)CSC2=S)cc(OC)c1OC,13.7%
15,CC(=O)Nc1ccc(NC(=O)CSc2nc3ccccc3nc2N2CCCCC2)cc1,12.3%
16,O=c1n(Cc2ccc(F)cc2)nc2n1-c1ccccc1SC2,7.28%
17,O=C(CSc1ccc2nnc(-c3ccccn3)n2n1)Nc1ccccc1,-2.42%
18,COc1cc2ccccc2cc1C(=O)Nc1ccccc1C,16.6%
19,CCOC(=O)COc1ccc2c(C)cc(=O)oc2c1C(=O)c1ccccc1,8.3%
20,CC(C)(C)C(=O)C[n+]1ccccc1.[Br-],10.9%
21,COc1ccccc1N1CCN(/N=C/c2cc(OC)c(O)c(OC)c2)CC1,-4.78%
22,O=C(CN1CCC(Cc2ccccc2)CC1)NC(=O)NC1CCCCC1,-0.54%
23,COc1cccc2c1OC1(C)CC2NC(=O)N1c1cccc(C(=O)N2CCN(c3ccccc3)CC2)c1 (centres unmarked),13.8%

row,Structure (SMILES),"hERG current change (%, negative = inhibition) at 1uM"
1,O=C(c1ccco1)N1CCN(Cc2nc(Cc3ccccc3)no2)CC1,5.44%
2,COc1ccc(/C=N/NC(=O)c2nnn(-c3nonc3N)c2-c2cccs2)c(OC)c1,21.5%
3,COc1cccc(Sc2ccccc2CN(C)C)c1.Cl,-0.991%
4,Cc1cccc(C(=O)Nc2ccccc2C(=O)OCC(=O)Nc2ccc(C#N)cc2)c1,4.63%
5,CC1=NNC(=O)C1CC(=O)N/N=C(\C)c1cccs1 (centres unmarked),19.1%
6,COc1ccc(CNC(=O)N2CCN(c3ccccc3OC)CC2)cc1,-6.08%
7,COc1ccc(CC(C)N2CCN(Cc3ccccc3)CC2)cc1OC (centres unmarked),2.68%
8,NC(=O)CC[C@H](NC(=O)c1ccc(F)cc1)C(=O)OCC(=O)Nc1c(F)c(F)c(F)c(F)c1F,11.5%
9,COc1ccccc1-n1c2c(cc(C(=O)N3CCC(C)CC3)c1=O)C(=O)CC(C)(C)C2,1.35%
10,Cn1c(=O)c(Sc2ccc(Cl)cc2)c(O)c2ccccc21,15.7%
11,O=C(CCc1nnc(C2CCCCC2)o1)N1CCN(C2CCCCC2)CC1,4.5%
12,COc1cccc(OCc2cc(C(=O)NC(C)c3cnn(C)c3C)no2)c1 (centres unmarked),3.87%
13,COc1ccc(N2CCN(C(=O)[C@H](Cc3c[nH]c4ccccc34)NC(C)=O)CC2)cc1,4.99%
14,CCOc1ccc(CCNC(=O)c2sc3nc4n(c(=O)c3c2C)CCC4)cc1,10.8%
15,O=C1C(Cc2ccccc2)S/C(=N/N=C/c2ccco2)N1c1ccccc1 (centres unmarked),13.6%
16,CCOc1ccc2nc(SCC(=O)Nc3ncccn3)[nH]c2c1,12.3%
17,O=C(Nc1c(C(=O)O)[nH]c2ccccc12)NC1CCCCC1,5.48%
18,O=C(CCN1C(=O)c2ccccc2C1=O)Nc1ccncc1,2.48%
19,Cc1nn(-c2nc3ccccc3s2)c(N)c1-c1ccc(Cl)cc1,21.2%
20,CCCN(C(=O)CSc1nnnn1C)C1CCS(=O)(=O)C1 (centres unmarked),11.7%
21,Cc1cc(NC(=O)CN(C)S(=O)(=O)c2cccc(Cl)c2)no1,-5.13%
22,Cc1ccsc1/C=N/NC(=O)c1nnn(-c2nonc2N)c1CN(C)c1ccccc1,20.8%
23,Cc1nn(Cc2c(Cl)cccc2Cl)c(C)c1NC(=O)c1sc2ccccc2c1Cl,8.64%

row,Structure (SMILES),"hERG current change (%, negative = inhibition) at 1uM"
1,C/C(=N\NC(=O)c1ccc(N/N=C(\C)c2ccncc2)cc1)c1ccncc1.O=S(=O)(O)O,4.05%
2,Cc1c(CCOC(=O)CC23CC4CC(CC(C)(C4)C2)C3)sc[n+]1Cc1ccc([N+](=O)[O-])cc1.[Br-],-18.7%
3,COC(=O)Cn1nnc2c(cnn2-c2ccccc2)c1=O,7.23%
4,CCC(=O)Nc1cc(C)c(NC(=O)c2ccco2)cn1,15.8%
5,Cc1ccc(N2C(=O)[C@@H]3C(c4ccc(F)cc4)=NO[C@@H]3C2=O)cc1,9.2%
6,COC(=O)c1nc2n(n1)C(c1ccc(OC)c(OC)c1)C(C(=O)OC1CCCCC1)=C(C)N2 (centres unmarked),1.25%
7,CSc1nncn1/N=C/c1ccc([N+](=O)[O-])cc1,3.82%
8,Cc1ccc(CSCC(=O)NCc2cccs2)cc1,7.51%
9,O=C(Nc1ccc2c(c1)OCCO2)c1cnc2n(c1=O)CCS2,4.26%
10,Cc1cc(C(F)F)n2nc(C(=O)Nc3ccc(S(=O)(=O)NC45CC6CC(CC(C6)C4)C5)cc3)nc2n1,-7.19%
11,CC(C)(C)c1ccc(OCCSc2nc3ccccc3n2CC(=O)O)cc1,14.3%
12,O=C1CC(C(=O)N2CCOCC2)C2(CCCC2)O1 (centres unmarked),8.55%
13,O=C(O)c1cc2n(n1)C(C(F)(F)F)CC(C1CC1)N2 (centres unmarked),1.99%
14,CSc1ccc(Cl)c(C(=O)Nc2ccc(OCC(N)=O)cc2)c1,6.79%
15,C=CCN1C(=O)/C(=C2/Sc3ccc(OC)cc3N2CC)SC1=S,18.8%
16,Cl.O=C(c1ccccc1)N1CCN(CC(O)COc2cccc3ccccc23)CC1 (centres unmarked),10.3%
17,O=C1NC2(CCCCC2)C(=O)N1CC(=O)N(Cc1ccccc1)c1ccccc1,2.86%
18,Cc1c(O)ccc(NS(=O)(=O)c2ccccc2)c1C,13%
19,CC(=O)Nc1ccc(SCCN2CC[C@@H](C(C)(C)C)CCC2=O)cc1,12.8%
20,Cc1cc(C)c(-c2csc(Cc3nc(-c4cc5ccccc5oc4=O)cs3)n2)cc1C,-0.0926%
21,CC1=C(N2CCCCC2)CCC1=O,8.53%
22,COC(=O)NNC(=O)C12CC3CC(CC(C3)C1)C2,4.29%
23,CCN(CC)S(=O)(=O)c1ccc(/C=C/C(=O)OCC(=O)NCc2ccc3c(c2)OCO3)cc1,10.4%

row,Structure (SMILES),"hERG current change (%, negative = inhibition) at 1uM"
1,CC(Oc1ccccc1)c1ccnc(N)n1 (centres unmarked),16.6%
2,COc1ccc(CNC(=O)C(OC(=O)c2ccco2)c2ccccc2F)cc1 (centres unmarked),12.8%
3,CCc1c(C)sc(NC(=O)c2cc(-c3cc(OC)ccc3OC)on2)c1C#N,2.61%
4,C=CCN1c2ccccc2[C@]23C[C@@H](C(=O)OC)N(C(=O)c4ccco4)C2=NC(C(=O)OC)=C(C(=O)OC)[C@H]13,-1.19%
5,Cc1onc(-c2ccccc2Cl)c1C(=O)Nc1ncn[nH]1,7.08%
6,Cc1[nH]c(=O)[nH]c(=O)c1S(=O)(=O)N1c2ccc(F)cc2CCC1C (centres unmarked),10.5%
7,Cc1nn(C)c(C)c1CNC(=O)/C=C/c1ccccc1F,12.1%
8,CC1=C/C(=N\S(=O)(=O)c2ccccc2)C(C(C)C)=CC1=O,14%
9,C/C(=N/NS(=O)(=O)c1ccc(Br)cc1)c1c[nH]c2ccccc12,13.5%
10,O=C(NCc1cccs1)C(=O)NCC(c1ccco1)N1CCN(c2ccc(F)cc2)CC1 (centres unmarked),9.68%
11,COc1ccc(NC(=O)CN(C)C(=O)c2ccc3c(c2)OCCO3)cc1,27.2%
12,COc1ccc(Nc2nnc(SCC(=O)N3CCCC3)s2)cc1,7.15%
13,Cc1ccccc1NC(=O)CSc1nc2c(c(-c3ccco3)c1C#N)CCCC2,-9.46%
14,COc1ccc(C)cc1S(=O)(=O)N1CCC(C(=O)N2CCN(C)CC2)CC1,12.4%
15,Cc1cccc2c1N(N=O)CCC2,2.91%
16,COC(=O)/C(C#N)=C/c1c(N2CCN(Cc3ccc4c(c3)OCO4)CC2)nc2c(C)cccn2c1=O,3.53%
17,CCN(CCCl)Cc1ccccc1Br.Cl,16.6%
18,O=[N+]([O-])c1ccc(C2CC(c3ccccc3)=Nc3ccccc3S2)cc1 (centres unmarked),4.39%
19,COc1ccc(CNC(=O)c2c(O)c3cccc4c3n(c2=O)CCC4)cc1OC,17.6%
20,O=C(OC1CCOC1=O)c1cc(-c2cccs2)nc2ccccc12 (centres unmarked),12.1%

# Source: paper PMC4336329 (PLoS ONE, 2015)
